According to paper PMC4336329 (PLoS ONE, 2015):
Among all 310,000 compounds or so, about 2,200 (0.71%) showed an effect of 50% or more. The effect is printed as a negative number. Some of the results follow.

Target: human ether-à-go-go-related gene (hERG) potassium channel (human, UniProt Q12809)
Assay: primary screen, population patch clamp on CHO cells stably expressing hERG

Sequence of human ether-à-go-go-related gene (hERG) potassium channel (Q12809 whole entry, looked up): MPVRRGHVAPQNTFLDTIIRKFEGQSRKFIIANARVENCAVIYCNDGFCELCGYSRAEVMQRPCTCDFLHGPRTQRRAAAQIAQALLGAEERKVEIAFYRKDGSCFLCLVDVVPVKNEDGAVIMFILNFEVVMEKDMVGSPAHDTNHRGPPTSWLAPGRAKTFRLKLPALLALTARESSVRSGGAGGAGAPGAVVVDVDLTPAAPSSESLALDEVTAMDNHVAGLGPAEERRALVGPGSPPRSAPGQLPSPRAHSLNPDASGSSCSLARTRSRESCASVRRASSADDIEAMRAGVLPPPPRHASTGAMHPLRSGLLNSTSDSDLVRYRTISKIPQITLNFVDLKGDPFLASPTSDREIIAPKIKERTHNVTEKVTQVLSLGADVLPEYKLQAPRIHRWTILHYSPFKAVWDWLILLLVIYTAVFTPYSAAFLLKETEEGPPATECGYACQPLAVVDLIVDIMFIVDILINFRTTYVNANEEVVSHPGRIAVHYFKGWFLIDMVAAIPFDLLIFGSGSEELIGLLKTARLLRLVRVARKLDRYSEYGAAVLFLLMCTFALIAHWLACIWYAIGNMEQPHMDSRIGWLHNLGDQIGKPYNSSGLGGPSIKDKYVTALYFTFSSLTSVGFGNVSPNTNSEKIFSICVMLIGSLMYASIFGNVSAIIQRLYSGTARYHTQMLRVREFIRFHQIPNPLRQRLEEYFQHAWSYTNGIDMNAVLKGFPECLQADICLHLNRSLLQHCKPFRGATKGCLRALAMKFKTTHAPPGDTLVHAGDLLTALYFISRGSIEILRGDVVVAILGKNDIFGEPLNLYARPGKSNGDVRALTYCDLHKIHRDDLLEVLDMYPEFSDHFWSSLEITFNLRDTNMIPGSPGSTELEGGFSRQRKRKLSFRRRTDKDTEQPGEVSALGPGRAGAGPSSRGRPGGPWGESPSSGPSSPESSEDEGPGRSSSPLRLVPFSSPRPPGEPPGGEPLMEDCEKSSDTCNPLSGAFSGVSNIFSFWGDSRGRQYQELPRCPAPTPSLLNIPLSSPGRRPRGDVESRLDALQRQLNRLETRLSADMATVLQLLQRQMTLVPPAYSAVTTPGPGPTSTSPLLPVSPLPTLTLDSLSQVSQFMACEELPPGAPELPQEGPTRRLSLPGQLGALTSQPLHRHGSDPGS

In order of falling “hERG current change (%, negative = inhibition) at 1uM” value:
1. COC(=O)c1ccc(NC(=O)CCC(=O)c2ccc(F)cc2)cc1  19.7%
2. COc1ccc(CCNC(=O)c2ccc(Cl)cc2)cc1  17.9%
3. CN(C)c1ccc(/C=N/NC(=O)c2nonc2N)cc1[N+](=O)[O-]  16.6%
4. CC(C)/C=C1\CCCCC1N(C)C(=O)NC(C)C (centres unmarked)  16.4%
5. O=C(O)c1cc(-c2ccc(Cl)cc2)n(-c2cccc(Cl)c2)n1  16.3%
6. CCCCN(C(=O)CN1C(=O)C2CCCCC2C1=O)c1c(N)n(CCC)c(=O)[nH]c1=O (centres unmarked)  15.8%
7. CC1(C)Cc2c(c(N3CCOCC3)nc3sc4c(N5CCOCC5)nnnc4c23)CS1  15.5%
8. CC(=O)c1ccc(N(C(=O)CNC(=O)c2ccco2)C(C(=O)NC2CCCC2)c2ccncc2)cc1 (centres unmarked)  15.1%
9. O=C(NCc1cccnc1)c1cc(Cl)ccc1[N+](=O)[O-]  14.9%
10. CCn1c(SCC(=O)c2c[nH]c3ccccc23)nnc1-c1cccs1  14.7%
11. CCC1(c2ccccc2)NC(=O)N(CC(=O)NNC(=O)CCN2CCN(c3ccccc3)CC2)C1=O (centres unmarked)  14.3%
12. Cc1ccc2c(c1)C(c1ccccc1)N(C(=O)c1ccc(Br)cc1)CC(=O)N2 (centres unmarked)  14%
13. COc1ccc(OC)c(NC(=O)CSc2nnc(NC(=O)c3ccco3)s2)c1  13.5%
14. CCOC(=O)CSc1nc(C(C)C)nc2sc(C)c(C)c12  13.5%
15. Cc1nc(-c2ccccc2)cs1  13.5%
16. CC(=O)Nc1ccc(OCc2nnc(-c3ccc(Cl)cc3)o2)cc1  13.4%
17. O=C1c2ccccc2C(Nc2ccc3c(c2)OCO3)N1Cc1ccco1 (centres unmarked)  13.2%
18. Cc1ccc(NC(=O)Nc2c(C)[nH]c(=O)[nH]c2=O)cc1Cl  12.9%
19. COc1cc(C(=S)N2CCCC2)ccc1OC(=O)c1ccc(Cl)cc1[N+](=O)[O-]  12.8%
20. COc1ccc(Br)cc1CNC(=O)CCc1nc(-c2ccccc2F)no1  12.7%
21. O=C(Cc1ccc(S(=O)(=O)N2CCOCC2)s1)N(Cc1ccccc1)c1ccccc1  12.4%
22. CCOc1ccc(CCNC(=O)COC(=O)/C=C/c2ccc(OC)c(OC)c2)cc1OCC  12.4%
23. CC(=O)NC(CC(=O)OC(C)C(=O)Nc1ncc(Cl)cc1Cl)c1ccccc1 (centres unmarked)  11.8%
24. COC1CCCCC1NS(=O)(=O)c1ccc(Cl)cc1 (centres unmarked)  11.8%
25. CN1CCN(NC(=O)c2ccccc2F)CC1  11.7%
26. Cc1onc(-c2c(F)cccc2Cl)c1C(=O)NCc1ccc(F)cc1  11.5%
27. O=c1[nH]c(C(F)(F)F)nc2c1nnn2Cc1ccccc1F  11.2%
28. Cc1cc(N2C(=O)C3CCCN3C2c2cccc(Cl)c2)no1 (centres unmarked)  10.7%
29. [O-]/C(=C(\C(=S)NCc1ccccc1)[n+]1ccccc1)c1ccc(Cl)cc1  10.1%
30. O=C(CN1C(=O)c2ccccc2S1(=O)=O)c1ccc(Cl)cc1Cl  9.83%
31. CC(NC(=O)CCc1nnc(-c2ccc(-c3ccccc3)cc2)o1)c1nc2ccccc2[nH]1 (centres unmarked)  9.71%
32. O=C(c1ccccc1Sc1ccc([N+](=O)[O-])cc1Cl)N1CCOCC1  9.4%
33. CC(C)N1CCC(N2CCN(Cc3cccc4nonc34)CC2CCO)CC1 (centres unmarked)  9.37%
34. Cc1noc(C)c1S(=O)(=O)N(C)CC(=O)Nc1ccc(F)cc1  9.13%
35. NC(=S)n1[nH]c(-c2ccc([N+](=O)[O-])cc2)c(N=Nc2ccc(O)cc2)c1=O  8.9%
36. COc1cc(CNc2nc(C)c([N+](=O)[O-])c(C)c2C#N)cc(OC)c1OC  8.09%
37. COc1ccc(C2CC(=O)N(C)c3ccccc3S2)cc1OC (centres unmarked)  8.07%
38. COc1ccccc1C(=O)NCCC(=O)NC1CCCCC1C (centres unmarked)  7.92%
39. COc1ccc2c(c1)C(C1C(=O)CCCC1=O)c1ccccc1O2 (centres unmarked)  7.82%
40. Cc1ccc(NC(=S)NCCc2ccccc2)c(C)c1  7.72%
41. COc1cc(OC)cc(C(=O)NC2CC3CCC(C2)N3C)c1 (centres unmarked)  7.65%
42. Cc1ccccc1NC(=O)NC1CCCCCCC1  7.53%
43. O=C(Nc1ccc(F)cc1)c1ccccc1F  7.35%
44. CC(C)(C)c1cnnn1-c1ccc(NC(=O)c2ccc(Br)o2)cc1  7.17%
45. COc1ccc(NC(=O)CN(c2ccccc2C)S(C)(=O)=O)c(OC)c1  7.08%
46. CCCNC(=O)COC(=O)/C=C/c1cccc(F)c1  6.98%
47. O=c1cc(CSc2ccccc2)nc(-c2ccccc2)[nH]1  6.93%
48. CCC(C(=O)O)N1C(=O)/C(=C/C(C)=C/c2ccccc2)SC1=S (centres unmarked)  6.92%
49. Cc1cc(C)c2nc(N3CCC(C(=O)NCCCN4CCCCC4)CC3)sc2c1  6.06%
50. CCC(Sc1nc2ccccc2c(=O)[nH]1)C(=O)Nc1ccc(C(C)=O)cc1 (centres unmarked)  5.81%
51. O=c1oc2ccccc2cc1N1CCOCC1  5.48%
52. CSc1nc2ccc(NC(=O)c3ccccn3)cc2s1  5.4%
53. Cc1ccc(C(CC(=O)NCCCN(C)C)c2ccc(OC(C)C)cc2)cc1 (centres unmarked)  4.33%
54. COc1ccc(NC(=O)CN2C(=O)NC(C)(C3CC3)C2=O)c(OC)c1 (centres unmarked)  4.28%
55. Cc1ccc(S(=O)(=O)/N=C(/NC(=S)Nc2c(C)n(C)n(-c3ccccc3)c2=O)c2ccccc2)cc1  4.19%
56. Cn1c(=O)c2cc(NC(=O)c3ccccc3Cl)c(=O)oc2n(C)c1=O  4.12%
57. CCCCN(C(=O)c1ccc(NC2CC2)c([N+](=O)[O-])c1)c1c(N)n(CC(C)C)c(=O)[nH]c1=O  3.75%
58. O=C(O)c1cc2c(cc1Cl)N1CCCCCC1=NS2(=O)=O  3.58%
59. COc1ccccc1Nc1nc2ccccc2n2cnnc12  3.54%
60. Cc1ccc(OCCNC(=O)C2CC(=O)N(c3ccc(C)cc3)C2)cc1 (centres unmarked)  3.23%
61. COc1ccc(OC)c(NC(=O)C2CCCN2C(=O)OCc2ccccc2)c1 (centres unmarked)  2.73%
62. CC(C)(C)n1nnnc1C(c1cc2cc3c(cc2[nH]c1=O)OCO3)N1CCN(c2ccccc2)CC1 (centres unmarked)  2.69%
63. Nc1ccc2c(c1)Oc1ccccc1C=C2  2.34%
64. Cc1ccc(S(=O)(=O)N2CCC(C(=O)N3CCc4ccccc43)CC2)cc1  1.88%
65. CCOC(=O)C1CCCN(Cc2ccccc2Cl)C1 (centres unmarked)  1.6%
66. O=C(OCc1ccc(Cl)cc1Cl)c1cccnc1Cl  1.14%
67. S=c1[nH]nc(C2CCCCC2)n1/N=C/c1ccc(Br)cc1  0.804%
68. CC(=O)c1ccc(OC(C)C)c(CSC(=N)N)c1.Cl  0.799%
69. Cn1cc(SCC(=O)Nc2nc3ccccc3s2)c2ccccc21  0.474%
70. Cc1cn2c(-c3ccc(Cl)cc3)nnc2s1  0.473%
71. COc1ccc(C(=O)NCC(C)(C)N2CCOCC2)cc1S(=O)(=O)N1CCCC1  -0.111%
72. CC(C)CC1NC(=O)N(CC(=O)N2CCN(S(=O)(=O)c3ccc4ccccc4c3)CC2)C1=O (centres unmarked)  -0.576%
73. O=C(CN1CCN(S(=O)(=O)c2ccc(F)cc2)CC1)NCc1cccs1  -0.596%
74. O=C(CC1CC2CCC1C2)N1CCN(S(=O)(=O)c2ccccc2F)CC1 (centres unmarked)  -0.997%
75. CCN(c1ccccc1)S(=O)(=O)c1ccc(C(=O)Nc2ccccn2)cc1  -1.12%
76. COc1ccc(S(=O)(=O)N2CCc3ccccc32)cc1C(=O)N1CCOCC1  -1.34%
77. c1ccc(Cc2nnc3sc(-c4ccc5c(c4)OCCO5)nn23)cc1  -1.39%
78. OCCC1CN(CC2CCCCC2)CCN1CC1CCCCC1 (centres unmarked)  -2.7%
79. O=S(=O)(c1ccccc1)N1CCN(S(=O)(=O)N2CCCCC2)CC1  -3.4%
80. Cc1cc(NC(=O)COC(=O)c2cc(S(=O)(=O)N3CCOCC3)ccc2N2CCCCC2)no1  -3.47%
81. CC(=O)Nc1ccc(OC(=O)N(C)C)cc1  -4.18%
82. C=CCn1c(C)cc(C(=O)CN2NS(=O)(=O)c3ccccc3C2=O)c1C  -4.73%
83. COc1ccc(CNC(=O)c2ccc(C)o2)cc1  -5.18%
84. CC1(C)CC(=O)C(CC(=O)NC(=O)NCc2ccccc2)=C(O)C1  -5.53%
85. Cc1ccc(OC(C)C(=O)N=Nc2c(O)[nH]c3ccc([N+](=O)[O-])cc23)cc1 (centres unmarked)  -7.55%
86. CCOc1ccc(Cc2nc(C)c(CC(=O)N3CCCCC3)c(=O)[nH]2)cc1  -8.57%
87. Cc1nnc(SCc2ccc(C(=O)c3ccc(Cl)cc3)o2)n1-c1ccccc1  -14.1%
88. Cc1ccc(Nc2cc(C)nc3ccc(C)cc23)cc1  -25%
89. CSc1cccc(CN2CCC(CO)(Cc3cccc(C(F)(F)F)c3)CC2)c1  -35.9%
